Measurements as given in publication PMC11164869.
Results are given in words; binding and its absence hold for the method and conditions named. In cells and extracts the contact can be indirect. Some binding calls cover weakened binding; strength is not graded here. For some assays here: Where a sequence is shown, tags or fusion partners need not be part of it.

Sequences of proteins named here, by UniProt entry; tags and fusion partners are left off.
UniProt Q99836: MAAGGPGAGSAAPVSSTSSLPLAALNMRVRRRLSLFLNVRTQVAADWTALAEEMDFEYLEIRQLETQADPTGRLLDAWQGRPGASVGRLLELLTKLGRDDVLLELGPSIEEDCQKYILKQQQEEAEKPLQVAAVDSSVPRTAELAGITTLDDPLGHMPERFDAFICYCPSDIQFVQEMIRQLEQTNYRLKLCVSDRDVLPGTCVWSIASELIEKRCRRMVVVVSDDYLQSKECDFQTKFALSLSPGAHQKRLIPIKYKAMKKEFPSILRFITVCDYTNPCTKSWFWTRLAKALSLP
UniProt P22366: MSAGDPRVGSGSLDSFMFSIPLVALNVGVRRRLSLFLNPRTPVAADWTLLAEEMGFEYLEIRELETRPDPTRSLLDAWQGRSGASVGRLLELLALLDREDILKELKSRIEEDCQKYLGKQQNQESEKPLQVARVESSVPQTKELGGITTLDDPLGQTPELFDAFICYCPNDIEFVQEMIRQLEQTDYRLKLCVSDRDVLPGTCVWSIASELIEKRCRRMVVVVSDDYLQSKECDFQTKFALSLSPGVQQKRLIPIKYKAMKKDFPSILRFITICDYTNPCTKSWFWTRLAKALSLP

Key:
[1] = molecular target: Myc-MyD88 (WT) (human) (UniProt Q99836); experiment: co-IP; HEK293T cells co-transfected with tagged plasmids; IP buffer 1% NP-40, 150 mM NaCl, 10 mM Tris-HCl pH 7.4, 1 mM EDTA; antibody with Protein A/G PLUS Agarose overnight; immunoblot
[2] = molecular target: T1, Flag-OTUD5 (WT) (human) (UniProt Q96G74); experiment: as above
T1 sequence: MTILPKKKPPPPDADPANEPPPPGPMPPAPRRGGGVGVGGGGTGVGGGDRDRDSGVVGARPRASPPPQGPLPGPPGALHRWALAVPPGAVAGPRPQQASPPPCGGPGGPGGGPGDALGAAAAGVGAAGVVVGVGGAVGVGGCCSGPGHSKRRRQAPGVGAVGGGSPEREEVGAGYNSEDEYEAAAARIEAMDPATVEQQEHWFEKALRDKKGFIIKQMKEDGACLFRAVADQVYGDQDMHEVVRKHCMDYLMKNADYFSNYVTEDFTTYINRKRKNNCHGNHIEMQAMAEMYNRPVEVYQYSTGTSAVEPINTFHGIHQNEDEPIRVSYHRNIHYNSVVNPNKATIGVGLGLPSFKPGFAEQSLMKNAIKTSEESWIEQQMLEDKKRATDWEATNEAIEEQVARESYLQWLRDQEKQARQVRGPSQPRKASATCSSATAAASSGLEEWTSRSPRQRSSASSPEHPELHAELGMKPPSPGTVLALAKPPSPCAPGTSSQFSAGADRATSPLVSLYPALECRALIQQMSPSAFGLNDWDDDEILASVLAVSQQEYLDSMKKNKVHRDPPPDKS

[3] = molecular target: MyD88 (endogenous, mouse peritoneal macrophages) (mouse (endogenous in peritoneal macrophages)) (UniProt P22366); experiment: co-IP; endogenous proteins in lysates of mouse peritoneal macrophages (WT and Otud5 CKO), LPS 100 ng/mL for various times; IP buffer 1% NP-40, 150 mM NaCl, 10 mM Tris-HCl pH 7.4, 1 mM EDTA; immunoblot
[4] = molecular target: T2, TRAF3 (endogenous, mouse peritoneal macrophages) (mouse (endogenous in peritoneal macrophages)) (UniProt Q60803); experiment: as above
T2 sequence: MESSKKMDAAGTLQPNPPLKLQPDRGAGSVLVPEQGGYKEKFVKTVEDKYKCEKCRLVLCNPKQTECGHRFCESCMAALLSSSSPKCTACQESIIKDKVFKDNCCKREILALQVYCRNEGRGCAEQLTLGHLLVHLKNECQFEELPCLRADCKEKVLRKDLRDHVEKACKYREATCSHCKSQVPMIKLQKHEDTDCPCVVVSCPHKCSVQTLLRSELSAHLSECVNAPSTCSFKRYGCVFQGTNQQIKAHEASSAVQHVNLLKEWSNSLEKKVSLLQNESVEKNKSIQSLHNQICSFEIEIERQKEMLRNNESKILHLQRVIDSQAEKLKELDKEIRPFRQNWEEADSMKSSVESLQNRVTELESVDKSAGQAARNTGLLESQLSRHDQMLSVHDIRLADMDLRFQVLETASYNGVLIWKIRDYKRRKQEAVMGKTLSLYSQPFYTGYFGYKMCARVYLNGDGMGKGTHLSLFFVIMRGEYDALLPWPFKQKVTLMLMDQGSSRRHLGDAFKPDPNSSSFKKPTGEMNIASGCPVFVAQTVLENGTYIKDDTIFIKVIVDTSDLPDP

B1: Flag-OTUD5 (amino acids 1-360) (domain or fragment, UniProt Q96G74 1-360)
chain: MTILPKKKPPPPDADPANEPPPPGPMPPAPRRGGGVGVGGGGTGVGGGDRDRDSGVVGARPRASPPPQGPLPGPPGALHRWALAVPPGAVAGPRPQQASPPPCGGPGGPGGGPGDALGAAAAGVGAAGVVVGVGGAVGVGGCCSGPGHSKRRRQAPGVGAVGGGSPEREEVGAGYNSEDEYEAAAARIEAMDPATVEQQEHWFEKALRDKKGFIIKQMKEDGACLFRAVADQVYGDQDMHEVVRKHCMDYLMKNADYFSNYVTEDFTTYINRKRKNNCHGNHIEMQAMAEMYNRPVEVYQYSTGTSAVEPINTFHGIHQNEDEPIRVSYHRNIHYNSVVNPNKATIGVGLGLPSFKPGFA
- binding [1]: no binding

B2: Myc-IKKβ (enzyme, UniProt O14920 1-756)
chain: MSWSPSLTTQTCGAWEMKERLGTGGFGNVIRWHNQETGEQIAIKQCRQELSPRNRERWCLEIQIMRRLTHPNVVAARDVPEGMQNLAPNDLPLLAMEYCQGGDLRKYLNQFENCCGLREGAILTLLSDIASALRYLHENRIIHRDLKPENIVLQQGEQRLIHKIIDLGYAKELDQGSLCTSFVGTLQYLAPELLEQQKYTVTVDYWSFGTLAFECITGFRPFLPNWQPVQWHSKVRQKSEVDIVVSEDLNGTVKFSSSLPYPNNLNSVLAERLEKWLQLMLMWHPRQRGTDPTYGPNGCFKALDDILNLKLVHILNMVTGTIHTYPVTEDESLQSLKARIQQDTGIPEEDQELLQEAGLALIPDKPATQCISDGKLNEGHTLDMDLVFLFDNSKITYETQISPRPQPESVSCILQEPKRNLAFFQLRKVWGQVWHSIQTLKEDCNRLQQGQRAAMMNLLRNNSCLSKMKNSMASMSQQLKAKLDFFKTSIQIDLEKYSEQTEFGITSDKLLLAWREMEQAVELCGRENEVKLLVERMMALQTDIVDLQRSPMGRKQGGTLDDLEEQARELYRRLREKPRDQRTEGDSQEMVRLLLQAIQSFEKKVRVIYTQLSKTVVCKQKALELLPKVEEVVSLMNEDEKTVVRLQEKRQKELWNLLKIACSKVRGPVSGSPDSMNASRLSQPGQLMSQPSTASNSLPEPAKKSEELVAEAHNLCTLLENAIQDTVREQDQSFTALDWSWLQTEEEEHSCLEQAS
- binding [2]: no binding

B3: IRAK4 (endogenous, mouse peritoneal macrophages) (enzyme, UniProt Q8R4K2 1-459)
chain: MNKPLTPSTYIRNLNVGILRKLSDFIDPQEGWKKLAVAIKKPSGDDRYNQFHIRRFEALLQTGKSPTCELLFDWGTTNCTVGDLVDLLVQIELFAPATLLLPDAVPQTVKSLPPREAATVAQTHGPCQEKDRTSVMPMPKLEHSCEPPDSSSPDNRSVESSDTRFHSFSFHELKSITNNFDEQPASAGGNRMGEGGFGVVYKGCVNNTIVAVKKLGAMVEISTEELKQQFDQEIKVMATCQHENLVELLGFSSDSDNLCLVYAYMPNGSLLDRLSCLDGTPPLSWHTRCKVAQGTANGIRFLHENHHIHRDIKSANILLDKDFTAKISDFGLARASARLAQTVMTSRIVGTTAYMAPEALRGEITPKSDIYSFGVVLLELITGLAAVDENREPQLLLDIKEEIEDEEKTIEDYTDEKMSDADPASVEAMYSAASQCLHEKKNRRPDIAKVQQLLQEMSA
- binding [3]: binds

B4: Flag-OTUD5 (WT) (enzyme, UniProt Q96G74 1-571)
chain: T1 sequence
- binding [1]: binds

B5: Myc-TAK1 (enzyme, UniProt O43318 1-606)
chain: MSTASAASSSSSSSAGEMIEAPSQVLNFEEIDYKEIEVEEVVGRGAFGVVCKAKWRAKDVAIKQIESESERKAFIVELRQLSRVNHPNIVKLYGACLNPVCLVMEYAEGGSLYNVLHGAEPLPYYTAAHAMSWCLQCSQGVAYLHSMQPKALIHRDLKPPNLLLVAGGTVLKICDFGTACDIQTHMTNNKGSAAWMAPEVFEGSNYSEKCDVFSWGIILWEVITRRKPFDEIGGPAFRIMWAVHNGTRPPLIKNLPKPIESLMTRCWSKDPSQRPSMEEIVKIMTHLMRYFPGADEPLQYPCQYSDEGQSNSATSTGSFMDIASTNTSNKSDTNMEQVPATNDTIKRLESKLLKNQAKQQSESGRLSLGASRGSSVESLPPTSEGKRMSADMSEIEARIAATTAYSKPKRGHRKTASFGNILDVPEIVISGNGQPRRRSIQDLTVTGTEPGQVSSRSSSPSVRMITTSGPTSEKPTRSHPWTPDDSTDTNGSDNSIPMAYLTLDHQLQPLAPCPNSKESMAVFEQHCKMAQEYMKVQTEIALLLQRKQELVAELDQDEKDQQNTSRLVQEHKKLLDENKSLSTYYQQCKKQLEVIRSQQQKRQGTS
- binding [2]: no binding

B6: IRAK2 (endogenous, mouse peritoneal macrophages) (enzyme, UniProt Q8CFA1 1-622)
chain: MACYIYQLPSWVLDDLCRNIDTLSEWDWMQFASYVITDLTQLRKIKSMERVQGVSITRELLWWWSMRQATVQQLVDLLCHLELYRAAQIVLSWKPVPESTSPLPAFPEAVKPGAVATSRRNLKDEQEKVRPVKPRSLLDTGPIMAGAQRQRPCEMDAPCSLKTDAPDSPQSKYCSTSTSAPKQERLLGLPGDRLFWSEADVVQATEDFDQSHRISEGTFADIYQGQRNGVAFAFKKLREVAGSSPGSMDRFLQAEMQLCLRCCHANVLPLLGFCTGRQFHSLIYPYMANGSLHDRLWAQGNSDMLPWPQRASICSGLLLAVEHLHSLDIIHSNVKSANVLLDQHLNPKLAHPVAHPHPDNKKTKYTVMRTHLFQASAAYLPEHFIRVGQLTKQVDIFSCGIVLAEVLTGIPAMDKDRSPVYLKDLLLSEIPNSTSSVCSRKTSMGKAVVKEICQRHVEKRAGLLPEACEEAWATAVSVCLRRRNASVEEARVSLAGVEEQLRGQLSLPWSRVSEATGSSSNTPEETDDVDNSSLSVPSLVMMASCPGAASSPLFTGHGAAQPSTSGRQEADSSSEACTGPQTPQNATETSWKIEINEAKRRLMENIVLYKEERLDSSELFGP
- binding [3]: binds

B7: OTUD5 (endogenous, mouse peritoneal macrophages) (enzyme, UniProt Q3U2S4 1-566)
chain: MTILPKKKPPPPDADPANEPPPPGPLPPAPRRGAGVGVGGGGTGVGGGERDRDSGVVGARPRASPPPQGPLPGPPGALHRWALAVPPGAVAGPRPQQASPPPCGGPGGPGGGPGDALGATTAGVGAAGVVVGVGGTVGVGGCCSGPGHSKRRRQAPGVGAVGGASPEREEVGAGYNSEDEYEAAAARIEAMDPATVEQQEHWFEKALRDKKGFIIKQMKEDGACLFRAVADQVYGDQDMHEVVRKHCMDYLMKNADYFSNYVTEDFTTYINRKRKNNCHGNHIEMQAMAEMYNRPVEVYQYSTEPINTFHGIHQNEDEPIRVSYHRNIHYNSVVNPNKATIGVGLGLPSFKPGFAEQSLMKNAIKTSEESWIEQQMLEDKKRATDWEATNEAIEEQVARESYLQWLRDQEKQARQVRGPSQPRKASATCSSATAAASSGLEEWTSRSPRQRSSASSPEHPELHAELGIKPPSPGTVLALAKPPSPCAPGTSSQFSAGGDRATSPLVSLYPALECRALIQQMSPSAFGLNDWDDDEILASVLAVSQQEYLDSMKKNKVHREPPPDKS
- binding [3]: binds
- binding [4]: binds
